#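 Following 48 hours of exposure in 96-well plates, responses at five concentrations were used to interpolate endpoints linearly. At the GI50, growth is halved.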 The source made the active and inactive calls. Cut-off read from the data, not from the text of the source: active = GI50 up to about 1.1 µM and inactive = higher.
# Tested on: NCI-H322M
# Assay: NCI tumour cell line growth inhibition, 48 h
row,SMILES,GI50
1,COc1cc(-c2oc(/C=N/c3ccccc3)c([N+](=O)[O-])c2-c2ccc(O)c(OC)c2)ccc1O,inactive: 41.9 µM
2,Brc1ccc(C[N+]23CN4CN(CN(C4)C2)C3)cc1,inactive: > 100 µM
3,CC(=O)O/C(C)=C\C(=O)O/N=C(\N)c1ccc(C)cc1,inactive: 88.5 µM
4,O=C1/C(=C\c2ccc(Cl)cc2)N=C(c2ccccc2)N1n1c(=O)cn[nH]c1=S,inactive: > 100 µM
5,N#Cc1c2c(c(N)oc1=O)C(c1ccccc1)CC(=O)N2 (stereo unspecified),inactive: > 100 µM
6,COc1ccc2c(c1)CC[C@@H]1[C@@H]2CC[C@]2(C)C(=O)/C(=C/c3ccc(O)c(OC)c3)C[C@@H]12,inactive: > 100 µM
7,O=c1c2ccccc2nc(Cc2nc(-c3ccc(Cl)cc3)cs2)n1-c1ccc(Cl)cc1,inactive: 84.9 µM
8,S=c1nc2c(c[nH]1)C1c3ccccc3C2c2ccccc21,inactive: > 100 µM
9,CN(CCCCN(C)CCc1ccc(Cl)c(Cl)c1)CCCCN1CCCC1,inactive: 1.59 µM
10,CCCN(CCC)C(=O)c1c([N+](=O)[O-])cc(C(F)(F)F)cc1[N+](=O)[O-],inactive: 61.5 µM
11,CC(C)=Cc1cc(CCC/C(C)=C/Cc2c(O)cc(C)c(C(=O)O)c2O)co1,inactive: > 100 µM
12,O=C1CN=C(c2ccccc2)c2ccncc2N1,inactive: > 100 µM
13,Nc1ccn(CCOC(=O)c2ccccc2)c(=O)n1,inactive: > 100 µM
14,Oc1ccc(CCc2cc(O)cc(O)c2)cc1 [DIHYDRORESVERATROL],inactive: > 100 µM
15,COC(=O)C(C)(NC(=O)C(CC(=O)OC(C)(C)C)NC(=O)OC(C)(C)C)c1ccccc1 (stereo unspecified),inactive: > 100 µM
16,Cc1c2ccnc(C(N)=O)c2c(C)c2c1[nH]c1ccccc12,inactive: 5.45 µM
17,O=C1N[C@@H]2c3c(csc3Br)C(=O)[C@@H]2O1,inactive: 38.1 µM
18,COc1cc(Nc2nc3ccccc3nc2-c2cccs2)cc(OC)c1OC,inactive: 52.1 µM

row,SMILES,GI50
1,CN(C)CCC1(C2=CCCC2)CC/C(=C\c2ccc(Cl)cc2)C1=O (stereo unspecified),inactive: 12.4 µM
2,CC1=CC(=O)c2c(C=O)c(O)c(O)c(C(C)C)c2C1=O,inactive: 60 µM
3,C/C=C1/CN2CCC34c5ccccc5N(C)C23C2CC1C4(C(=O)OC)C(O)O2 (stereo unspecified),inactive: > 100 µM
4,O=S1(=O)NN=C(NCc2ccc(Cl)c(Cl)c2)c2ccccc21,inactive: > 100 µM
5,CC1=NN(c2cccc(Cl)c2)C2(C1)C(Cl)C(=O)N2c1nc2ccccc2s1 (stereo unspecified),inactive: 42.6 µM
6,CCCCCC(O)[C@H]1C(=O)C[C@@H](O[Si](C)(C)C(C)(C)C)[C@@H]1/C=C/CCOCc1ccccc1 (stereo partly specified),inactive: 16.9 µM
7,CSc1nc(Cl)c2c(n1)Sc1nc3ccccc3n1C2O (stereo unspecified),inactive: 24.8 µM
8,C=C1CCC(CC[C@@H]2CC[C@]3(OC2)O[C@@]2(O)CC[C@]3(C)OC2(C)C)C(C)(C)[C@H]1C/C=C1/C(=O)OC[C@@H]1O (stereo partly specified),inactive: 5.08 µM
9,COc1ccc2c(c1)C(=O)c1ccccc1C2,inactive: 88.3 µM
10,N#Cc1c(N2CCC(O)C2)c2ccccc2n2c1nc1ccccc12 (stereo unspecified),inactive: > 100 µM
11,OCCCCOC(c1ccccc1)(c1ccccc1)c1ccccc1,inactive: > 100 µM
12,COC1CCC(=C2C(=O)OC(C)(C)OC2=O)N1 (stereo unspecified),inactive: > 100 µM
13,COc1cccc(C2SC(=N)Nc3c2c(C)nn3C(=O)Cc2ccccc2)c1 (stereo unspecified),inactive: > 100 µM
14,C1#Cc2ccccc2OCCOc2ccccc2C#Cc2ccccc2OCCOc2ccccc21,inactive: 28.8 µM
15,O=C(O)CCC(NC(=O)c1ccc(Nc2cnc3ccc(C(F)(F)F)cc3n2)cc1)C(=O)O (stereo unspecified),inactive: > 100 µM
16,NC(=O)CCC(NC(=O)c1c2ccccc2nc2ccccc12)C(=O)O (stereo unspecified),inactive: > 100 µM
17,Cn1c2c(c3ccccc31)C1CCCCC1C1C(=O)NC(=O)C21 (stereo unspecified),inactive: > 100 µM
18,CN(C)c1ccc(-c2c(C#N)c(S)n(NS(=O)(=O)c3ccccc3)c(=O)c2C#N)cc1,inactive: 66.1 µM

# Source: ChEMBL document CHEMBL1201862, “PubChem BioAssay data set” (2004)
